According to PubChem BioAssay AID588855 (National Center for Advancing Translational Sciences (NCATS), 2011):
About 5,000 (1.2%) of roughly 410,000 compounds were called active. The call rests on the fitted dose curve; in most records, active means well fitted inhibition curve with a large enough effect; inconclusive means small, poorly fitted or top-dose-only effect; inactive means no such curve, though single readings can be large or run the other way. The inconclusive results got no clear call from the source. Where the call is inconclusive, the potency comes from a doubtful curve fit.

Experiment: qHTS for Inhibitors of TGF-b; further: nearly all actives have a fitted effect of over 65% in size
Conditions: HepG2 CAGA-GFP TGF-b/SMAD3 reporter, GFP fluorescence, 18 h, TGF-beta stimulated, 500 pg/mL final; series mostly up to 46.1 µM
Text: TGF-b is a main component in the TGF-b signaling pathway which plays diverse roles in cellular and development pathways. TGF-b is the mediated by the transcription factors Smads. Although the Smad-dependent pathway is the primary canonical TGF-b signaling node, TGF-b1 can also activate alternative signaling pathways, including those involving MAPK (ERK, JNK and p38). This interaction may mediate or enhance Smad-dependent responses, or can exert Smad-independent effects. The complexity of this signaling cascade allows the TGF-b superfamily to perform unique, overlapping or redundant functions. […] We aim to identify Smad3-small molecule antagonists using a quantitative high throughput screening (qHTS) approach. […]
Suspensions of trypsinized HEPG2 CAGA-GFP cells were dispensed into white, tissue culture-treated, solid 1536-well plates at 5uL/well (1000 cells/well final concentration) in DMEM medium supplemented with 1% FBS. […] The plates were measured on an Acumen eX3 Explorer plate reader for GFP fluorescence (ex488/em500-530). GFP values were calculated by determining the mean GFP fluorescence of individual cells, and compiling these values for each well to determine a total well GFP signal. The %Activity was determined from the corrected fluorescence values. […]
Concentration-response curves were fitted to the signals arising from the resulting fluorescence. […]
Potency means the concentration at half of the fitted maximal effect; tags describe the fitted curve by direction and shape.

| SMILES | Potency |
| --- | --- |
| CC(c1ccccc1)N1C(=O)c2ccc(C(=O)Nc3ccccc3C(=O)O)cc2C1=O (stereo unspecified) | inconclusive: 3.55 µM [inhibitor, full curve] |
